In PMC4336329 (PLoS ONE, 2015):
The whole screen tested about 310,000 compounds, of which about 2,200 (0.71%) showed an effect of 50% or more. Effects have a minus sign here. The list shows a part of the results.

Molecular target: human ether-à-go-go-related gene (hERG) potassium channel (human, UniProt Q12809)
Assay: primary screen, population patch clamp on CHO cells stably expressing hERG

Chain of human ether-à-go-go-related gene (hERG) potassium channel (Q12809 whole entry, looked up): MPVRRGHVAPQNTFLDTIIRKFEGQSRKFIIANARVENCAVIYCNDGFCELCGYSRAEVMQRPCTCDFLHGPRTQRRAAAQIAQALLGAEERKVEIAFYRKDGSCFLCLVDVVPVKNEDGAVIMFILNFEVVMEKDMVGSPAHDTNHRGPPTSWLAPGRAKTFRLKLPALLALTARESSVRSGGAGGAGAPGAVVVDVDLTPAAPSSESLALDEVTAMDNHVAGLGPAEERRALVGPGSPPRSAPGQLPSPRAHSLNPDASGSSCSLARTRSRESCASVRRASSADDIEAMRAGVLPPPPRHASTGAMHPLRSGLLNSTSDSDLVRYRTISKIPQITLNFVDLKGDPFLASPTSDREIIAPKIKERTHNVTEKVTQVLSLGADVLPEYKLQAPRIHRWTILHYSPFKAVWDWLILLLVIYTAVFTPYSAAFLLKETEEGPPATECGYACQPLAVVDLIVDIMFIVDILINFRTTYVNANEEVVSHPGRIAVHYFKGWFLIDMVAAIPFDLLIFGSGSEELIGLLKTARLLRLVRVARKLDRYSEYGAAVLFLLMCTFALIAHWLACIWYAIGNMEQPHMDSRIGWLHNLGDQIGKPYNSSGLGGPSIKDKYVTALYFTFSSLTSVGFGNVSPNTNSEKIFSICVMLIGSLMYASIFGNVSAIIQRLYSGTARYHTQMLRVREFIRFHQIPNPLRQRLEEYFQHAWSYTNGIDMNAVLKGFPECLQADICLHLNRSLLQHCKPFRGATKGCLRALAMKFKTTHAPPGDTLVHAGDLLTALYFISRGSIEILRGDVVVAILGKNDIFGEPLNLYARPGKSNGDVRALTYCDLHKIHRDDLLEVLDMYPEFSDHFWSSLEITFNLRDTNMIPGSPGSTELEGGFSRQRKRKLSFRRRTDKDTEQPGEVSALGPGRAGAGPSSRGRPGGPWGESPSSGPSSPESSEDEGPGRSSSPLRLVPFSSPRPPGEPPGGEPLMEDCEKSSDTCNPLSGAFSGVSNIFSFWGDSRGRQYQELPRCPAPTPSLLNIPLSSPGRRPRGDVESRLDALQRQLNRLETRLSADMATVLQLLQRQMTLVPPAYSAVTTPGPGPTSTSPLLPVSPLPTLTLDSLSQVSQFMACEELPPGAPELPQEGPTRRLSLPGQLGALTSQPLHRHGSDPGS

| Structure (SMILES) | hERG current change (%, negative = inhibition) at 1uM [%] |
| --- | --- |
| CN1C(=O)c2cccc(NC(=O)C3CCCCC3)c2C1=O | 1.01 |
| Cc1ccc(Cl)cc1N1CCN(S(=O)(=O)c2c(C)nc3scc(C)n3c2=O)CC1 | 15.2 |
| Cc1ccc2ncnc(NCCC(=O)O)c2c1.Cl | 2.24 |
| COc1ccc(CNC(=O)CCS(=O)(=O)c2ccc3c(c2)CC(C)N3C(=O)C2CC2)cc1 (stereo not shown) | 10.1 |
| CCOC(=O)C1=C(C)NC(=S)NC1c1ccc(-c2cccc(Cl)c2C)o1 (stereo not shown) | 10.8 |
| c1ccc(Cn2nnnc2CN2CCN(Cc3ccc4c(c3)OCO4)CC2)cc1 | -36.5 |
| CC(C)(C)N1C(=O)[C@H]2[C@@H](c3ccc(Br)cc3)N3C(=O)N(c4cccc(Cl)c4)C(=O)[C@@]3(Cc3ccccc3)[C@H]2C1=O | 15.1 |
| Cc1ccc(C(=O)Nc2ccc(Nc3ccccc3)cc2)c(Cl)c1 | 16.9 |
| COc1ccc(Cl)cc1NC(=S)N(Cc1cccnc1)Cc1ccco1 | -15.9 |
| O=C(NC1CCS(=O)(=O)C1)c1cccc(S(=O)(=O)N2CCCCC2)c1 (stereo not shown) | 6.02 |
| Cc1nc(CSc2ccc(Cl)cc2)cc(N2CCOCC2)n1 | 0.168 |
| COc1ccc(/C=C/C(=O)NNC(=O)c2cc(C)oc2C)cc1 | 11.6 |
| Cc1cc(Cl)ccc1Oc1ccccc1C(=O)CC#N | -1.61 |
| COc1cccc(NC(=O)CCN2C(=O)c3ccccc3Sc3ncccc32)c1 | 12 |
| NC(=O)c1cc2cc(Br)ccc2o/c1=N/NC(=O)c1cccc(F)c1 | 11.8 |
| O=C(CCN=C1NS(=O)(=O)c2ccccc21)OCc1ccccc1 | 4.13 |
| Cc1cccc(N2CC(C(=O)Nc3ccc4c(c3)OCO4)CC2=O)c1C (stereo not shown) | -3.24 |
| O=C(Nc1nnc(-c2ccncc2)o1)c1ccccc1F | 7.95 |
| Cc1cc(-c2nnc(SCC(=O)c3ccc4c(c3)OCCO4)o2)no1 | -2.61 |
| COc1cc(CNCc2ccc(OC)c3ccccc23)cc(OC)c1OC.O=C(O)C(=O)O | 5.04 |
| C=CCN1C(=O)/C(=C2/Sc3ccccc3N2CC)SC1=S | 16.3 |
| COc1ccccc1N1C(=O)C2CCC(c3ccccc3)CC2C1=O (stereo not shown) | 6.4 |

| Structure (SMILES) | hERG current change (%, negative = inhibition) at 1uM [%] |
| --- | --- |
| O=C(CCSc1ccc(Cl)cc1)N1CCN(S(=O)(=O)c2ccccc2)CC1 | -5.91 |
| Cc1nn(-c2ccccc2)c(C)c1NC(=O)c1ccc(S(=O)(=O)N2CCCC2)cc1 | 7.58 |
| CC(C)c1ccc(NC(=S)Nc2cccc3ccccc23)cc1 | 6.52 |
| O=C(CN(C(=O)c1nsc(Cl)c1Cl)c1ccc(F)cc1)NC1CCCC1 | 7.51 |
| Cc1nn(CCO)c2nc(-c3cccs3)cc(C(F)(F)F)c12 | 8.51 |
| [Br-].c1ccc(-c2c[n+]3c(n2-c2ccccc2)SCC3)cc1 | 4.69 |
| CN(Cc1cnn(C)c1)C(=O)C1CCC(=O)N(Cc2cccc(C(F)(F)F)c2)C1 (stereo not shown) | 9.39 |
| Cc1cccnc1NC(=O)c1ccc(S(=O)(=O)N2CCC(C)CC2)cc1 | -2.92 |
| COc1cc(/C=C/C(=O)O)cc(S(=O)(=O)Nc2ccccc2Oc2ccccc2)c1OC | -7.73 |
| Cn1c(N)c(C(=O)c2ccc(Oc3ccccc3)cc2)c(=O)n(C)c1=O | 3.09 |
| O=C1C=C(NCc2ccc(Cl)c(Cl)c2)C2(CCCCC2)O1 | 12.3 |
| Cc1ccc(NC(=O)CSc2nc(CSc3ccc(C)cc3)cc(=O)[nH]2)cc1 | 11.9 |
| COC(=O)CNC(=O)CSc1nc2sc(-c3ccccc3)cc2c(=O)n1-c1ccccc1 | 11.6 |
| Cl.O=C(O)/C=C/c1ccc(Cn2ccnc2)cc1 | 1.68 |
| CCn1ccc(C(=O)Nc2ccccc2SC)n1 | -4.01 |
| Cc1cc(C(=O)N2CC=C(c3ccccc3)CC2)c2ccccc2n1 | -15 |
| Cc1ccc(Nc2nc(NCC3CCCO3)nc(N)c2[N+](=O)[O-])cc1 (stereo not shown) | 17.7 |
| Cc1cc2cc(CN3C(=O)c4ccccc4C3=O)ccc2[nH]1 | 6.89 |
| Cc1ccc(/C=C/C(=O)N2CCC(Cc3ccccc3)CC2)cc1 | 9.28 |
| O=C(Nc1ccccc1C(=O)N1CCCC1)c1cccc(S(=O)(=O)N2CCCCCC2)c1 | 11.3 |
| C=CCOC(=O)C1=C(C)NC(=O)NC1/C=C/c1ccccc1OC (stereo not shown) | 13.3 |
